Test results: PubChem BioAssay (NCATS)
The shares of active, inactive and inconclusive entries below differ from those in the screen. A potency beside an inconclusive call is a rough fit, not a confirmed value. Activity calls are given as the source filed them. The call rests on the fitted dose curve; in most records, active means well fitted cell-killing curve with a large enough effect; inconclusive means small, poorly fitted or top-dose-only effect; inactive means flat fitted curve, though single readings scatter.

Assay: qHTS of pediatric cancer cell lines to identify multiple opportunities for drug repurposing: Primary screen for TC32 cells (AID 1347089); further: nearly all actives have a fitted effect of over 60% in size
Settings: TC32 Ewing sarcoma viability, CellTiter-Glo luminescence, 48 h; series mostly up to 45.8 µM; activity change, negative = cytotoxic: at the top concentration
From the text: Drug repurposing or repositioning has been offered as a strategy for drug development in oncology programs. This approach has special potential for childhood cancers and other rare or orphan diseases, where the expected return on new drug development has been a disincentive to pharmaceuticals.
In this project we exploit the poly-pharmacology of drugs to discover new indications via phenotypic screening of a panel of 19 well-characterized cell lines derived from solid tumors seen in children and adolescents. The goal is to identify approved drugs with previously unrecognized anticancer properties that has the potential to reveal new mechanisms and biological processes involved in carcinogenesis or drug resistance. We employed a titration-based paradigm (quantitative high-throughput screening or qHTS), where all compounds were tested at multiple concentrations for their effect on cell viability. Concentration-response curves (CRCs) were derived directly from the primary screen, and both potency and efficacy values were used to identify compounds with robust bioactivity profiles. We screened the NIH Chemical Genomics Center (NCGC) Pharmaceutical Collection (NPC) and Mechanism Interrogation Plate (MIPE) small molecule collections of approved and investigational compounds against these cell lines; and measured metabolically active cells after 48 hours of compound treatment as a proxy for cell viability.
Assay Submitter: Nathalia J. Martinez, National Center for Advancing Translational Sciences, National Institutes of Health, Rockville, MD, USA; email: natalia.martinez@nih.gov
[1] Shen, M et al. Quantitative high-throughput phenotypic screening of pediatric cancer cell lines identifies multiple opportunities for drug repurposing. Oncotarget 2017 Dec 19;9(4):4758-4772. PMID 29435139.
The cells were obtained from University of North Carolina (UNC), Pediatric Preclinical Testing Program (PPT), and Coriell Institute (CI).
qHTS cell viability assay:
Cells were assayed in growth media at a density of 500-1,000 cells/well. Five microliters of cells were dispensed into 1,536-well, white, solid-bottom, TC-treated plates (Greiner Bio One) using a multidrop dispenser and incubated at 37 degrees C, 5% CO2, under a humidified atmosphere for 5 hours. Twenty-three nanoliters of compounds and controls (neutral control DMSO or positive control bortezomib at final concentration of 2.3 uM) were subsequently transferred by Kalypsys pintool. For primary screens, the MIPE collection was tested at 11-point dilutions (final concentrations range from 0.78 nM to 46 µM) and the NPC collection at 8-point dilutions (final concentrations range from 0.59 nM to 46 µM). Compounds tested in follow-up screens were assayed at 11-point dilutions. Cells were incubated for 48 hours, followed by addition of 3 uL of CellTiter-Glo (Promega). After a 15min incubation at room temperature, samples were analyzed for luminescence intensity using a ViewLux High-throughput CCD imager equipped with clear filters.
On the % scale 0 is the no-effect control and ±100 the full control effect; potency means the concentration at half of the fitted maximal effect; tags describe the fitted curve by direction and shape.

Q: For `C[C@]12CCC(=O)C=C1CC[C@@H]1[C@H]3CC[C@](C)(O)[C@@]3(C)CC[C@@H]12`, which Potency is on record?
A: inconclusive: 0.0153 µM [rising, full curve, poor fit]

Q: With `CCOC(=O)C1(c2ccccc2)CCN(CCC(C#N)(c2ccccc2)c2ccccc2)CC1` as the compound, how does the Potency read?
A: inconclusive: 29.7 µM [cytotoxic, single point]

Q: Which “activity change, negative = cytotoxic” value does the source give for `O=C(Oc1ccc([N+](=O)[O-])cc1)N1CCN(Cc2cccc(Oc3ccccc3)c2)CC1` here?
A: inactive: 5.54%

Q: Which Potency does the source give for `COc1ccc(Cc2nccc3cc(OC)c(OC)cc23)cc1OC` here?
A: inconclusive: 18.7 µM [cytotoxic, single point]

Q: With `O=C(O)c1ccc(=O)[nH]c1` as the compound, how does the “activity change, negative = cytotoxic” value read?
A: inactive: 16%

Q: Which Potency does the source give for `O=C(Nc1ccncc1)C(=O)c1cn(Cc2ccc(Cl)cc2)c2ccccc12` here?
A: inconclusive: 0.208 µM [cytotoxic, full curve]

Q: For `CN1CCN(C(=O)O[C@H]2c3nccnc3C(=O)N2c2ccc(Cl)cn2)CC1`, which Potency is on record?
A: inactive

Q: With `COc1ccc2c(c[n+](C)c3c4cc5c(cc4ccc23)OCO5)c1OC` as the compound, how does the Potency read?
A: inconclusive: 23.4 µM [cytotoxic, single point]

Q: Which Potency does the source give for `Fc1ccc(C(OCCN2CCN(CCCc3ccccc3)CC2)c2ccc(F)cc2)cc1` here?
A: inconclusive: 29.7 µM [cytotoxic, single point]

Q: With `C[CH2][Hg][S]c1ccccc1C(=O)O` as the compound, how does the Potency read?
A: inconclusive: 33.3 µM [cytotoxic, single point]

Q: With `CCNC(=O)C[C@@H]1N=C(c2ccc(Cl)cc2)c2cc(OC)ccc2-n2c(C)nnc21` as the compound, how does the Potency read?
A: inconclusive: 1.04 µM [cytotoxic, full curve]

Q: Which Potency does the source give for `CC(C)[C@]12O[C@@H]1[C@@H]1O[C@]13[C@]1(O[C@H]1C[C@@H]1C4=C(CC[C@@]13C)C(=O)OC4)[C@H]2O` here?
A: inconclusive: 0.0104 µM [cytotoxic, full curve, poor fit]

Q: Which Potency does the source give for `CN(C)C(=S)SSC(=S)N(C)C` here?
A: active: 4.19 µM

Q: For `Cc1ncc(CNC(=O)N(CCCl)N=O)c(N)n1`, which Potency is on record?
A: inconclusive: 26.4 µM [cytotoxic, single point]

Q: With `COc1ccc(C(=O)N2CCCC2=O)cc1` as the compound, how does the Potency read?
A: inactive

Q: With `C[C@]12CC[C@H](O)CC1=CC[C@@H]1[C@@H]2CC[C@]2(C)C(=O)CC[C@@H]12` as the compound, how does the “activity change, negative = cytotoxic” value read?
A: inactive: 7.58%

Q: With `Clc1ccc(COC(Cn2ccnc2)c2ccc(Cl)cc2Cl)cc1` (stereo not given) as the compound, how does the Potency read?
A: inconclusive: 33.3 µM [cytotoxic, single point]

Q: With `CC=C(C)C(=O)O[C@H]1C(C)=C2[C@@H]3OC(=O)[C@@](C)(O)[C@@]3(O)[C@@H](OC(=O)CCC)C[C@](C)(OC(C)=O)[C@@H]2[C@@H]1OC(=O)CCCCCCC` as the compound, how does the Potency read?
A: inconclusive: 2.34 µM [cytotoxic, full curve, poor fit]

Q: For `CC=C(C)C(=O)N[C@@H](c1ccccc1)[C@@H](O)C(=O)O[C@H]1C[C@@]2(O)[C@@H](OC(=O)c3ccccc3)[C@@H]3[C@]4(OC(C)=O)CO[C@@H]4C[C@H](O)[C@@]3(C)C(=O)[C@H](OC(C)=O)C(=C1C)C2(C)C`, which Potency is on record?
A: active: 0.0013 µM

Q: For `c1ccc2c(c1)Sc1ccccc1N2CC1CN2CCC1CC2` (stereo not given), which Potency is on record?
A: inconclusive: 33.3 µM [cytotoxic, single point]

Q: With `CC(C)c1c(CN(C)C(C)Cc2ccccc2)n(C)n(-c2ccccc2)c1=O` (stereo not given) as the compound, how does the “activity change, negative = cytotoxic” value read?
A: inactive: 11.7%

Q: With `CCN1CCN(C(=O)Cc2ccc(Nc3ncc(F)c(Nc4ccc(C(=O)Nc5ccccc5Cl)cc4)n3)cc2)CC1` as the compound, how does the Potency read?
A: inconclusive: 6.58 µM [cytotoxic, full curve, poor fit]

Q: Which Potency does the source give for `CN(C)CCc1c[nH]c2ccc(O)cc12` here?
A: inconclusive: 3.33 µM [rising, partial curve, poor fit]

Q: With `CC(O)(CS(=O)(=O)c1ccc(F)cc1)C(=O)Nc1ccc(C#N)c(C(F)(F)F)c1` (stereo not given) as the compound, how does the Potency read?
A: inconclusive: 26.2 µM [cytotoxic, single point]

Q: With `Clc1ccc(CCC(Cn2ccnc2)Sc2c(Cl)cccc2Cl)cc1` (stereo not given) as the compound, how does the Potency read?
A: inconclusive: 16.7 µM [cytotoxic, partial curve, poor fit]

Q: With `C[C@@H]1O[C@@H](O[C@@H]2C=C3CC[C@@H]4[C@H](CC[C@]5(C)[C@@H](c6ccc(=O)oc6)CC[C@]45O)[C@@]3(C)CC2)[C@H](O)[C@H](O)[C@H]1O` as the compound, how does the Potency read?
A: active: 0.0033 µM

Q: For `Cn1c(CCCC(=O)O)nc2cc(N(CCCl)CCCl)ccc21`, which Potency is on record?
A: inconclusive: 8.36 µM [cytotoxic, partial curve, poor fit]

Q: With `O=C1CCC[C@@H]2[C@H]3CCCN4CCC[C@@H](CN12)[C@@H]34` as the compound, how does the Potency read?
A: inconclusive: 0.262 µM [rising, partial curve, poor fit]

Q: With `Cc1ncsc1CCCl` as the compound, how does the “activity change, negative = cytotoxic” value read?
A: inactive: -3.72%

Q: With `Cc1sc2c(c1C)C(c1ccc(Cl)cc1)=N[C@@H](CC(=O)OC(C)(C)C)c1nnc(C)n1-2` as the compound, how does the Potency read?
A: inconclusive: 1.47 µM [cytotoxic, full curve]

Q: With `C[C@]12CC[C@H]3[C@@H](CCC4=CC(=O)CC[C@@H]43)[C@@H]1CC[C@@H]2OC(=O)CCC1CCCCC1` as the compound, how does the “activity change, negative = cytotoxic” value read?
A: inactive: -2.78%

Q: For `CCOC(=O)c1cncn1C(C)c1ccccc1` (stereo not given), which “activity change, negative = cytotoxic” value is on record?
A: inactive: 18.7%

Q: With `COc1cccc([C@@]2(O)CCCC[C@@H]2CN(C)C)c1` as the compound, how does the “activity change, negative = cytotoxic” value read?
A: inactive: 6.73%

Q: For `CCCCCCCCCCCC[N+](C)(C)CCOc1ccccc1`, which Potency is on record?
A: inconclusive: 29.7 µM [cytotoxic, single point]

Q: For `Cc1c(C(=O)c2cccc3ccccc23)c2cccc3c2n1[C@H](CN1CCOCC1)CO3`, which “activity change, negative = cytotoxic” value is on record?
A: inactive: 0.141%

Q: For `ClCc1cccc(Cl)c1`, which “activity change, negative = cytotoxic” value is on record?
A: inactive: 7.91%

Q: Which Potency does the source give for `COc1cc(CC(C)N)c(OC)cc1Br` (stereo not given) here?
A: inconclusive: 79.2 µM [cytotoxic, single point]

Q: For `CNC(=O)N1N=C(c2ccc(N)cc2)c2cc3c(cc2CC1C)OCO3` (stereo not given), which Potency is on record?
A: inconclusive: 8.29 µM [cytotoxic, partial curve]

Q: Which Potency does the source give for `Clc1ccc(CSC(Cn2ccnc2)c2ccc(Cl)cc2Cl)cc1` (stereo not given) here?
A: inconclusive: 33.3 µM [cytotoxic, partial curve, poor fit]

Q: With `COc1ccc2c(c1OC)CN1CCc3cc4c(cc3C1C2)OCO4` (stereo not given) as the compound, how does the Potency read?
A: inactive
